{"source": "patent US9157904B2", "about": "“Wnt antagonists and methods of treatment and screening” (OncoMed Pharmaceuticals, Inc., priority 2010, dated 2015)", "molecules": {"B1": {"name": "54F09: FZD8-Fc variant, IgG1 Fc; SEQ ID NO:46 (protein)", "chain": "ASAKELACQEITVPLCKGIGYNYTYMPNQFNHDTQDEAGLEVHQFWPLVEIQCSPDLKFFLCSMYTPICLEDYKKPLPPCRSVCERAKAGCAPLMRQYGFAWPDRMRCDRLPEQGNPDTLCMDYNRTDLTTAAPSPP[omitted - human IgG1 Fc]", "modifications": "FZD8-Fc variant 54F09"}, "B2": {"name": "54F16: FZD8-Fc variant, IgG1 Fc; SEQ ID NO:50, native signal sequence (SEQ ID NO:52) (protein)", "chain": "ASAKELACQEITVPLCKGIGYNYTYMPNQFNHDTQDEAGLEVHQFWPLVEIQCSPDLKFFLCSMYTPICLEDYKKPLPPCRSVCERAKAGCAPLMRQYGFAWPDRMRCDRLPEQGNPDTLCMDYNRTDL[omitted - human IgG1 Fc with C220S (EU numbers) and a few adjoining residues]", "modifications": "FZD8-Fc variant 54F16, 54F17, 54F18, 54F23, 54F25, 54F27, 54F29, 54F31, and 54F34 (without predicted signal)"}, "B3": {"name": "54F23: FZD8-Fc variant with modified signal sequence; SEQ ID NO:50 (protein)", "chain": "ASAKELACQEITVPLCKGIGYNYTYMPNQFNHDTQDEAGLEVHQFWPLVEIQCSPDLKFFLCSMYTPICLEDYKKPLPPCRSVCERAKAGCAPLMRQYGFAWPDRMRCDRLPEQGNPDTLCMDYNRTDL[omitted - human IgG1 Fc with C220S (EU numbers) and a few adjoining residues]", "modifications": "modified signal sequence; FZD8-Fc variant 54F16, 54F17, 54F18, 54F23, 54F25, 54F27, 54F29, 54F31, and 54F34 (without predicted signal)"}, "B4": {"name": "54F15: FZD8-Fc variant, IgG1 Fc; SEQ ID NO:48 (protein)", "chain": "ASAKELACQEITVPLCKGIGYNYTYMPNQFNHDTQDEAGLEVHQFWPLVEIQCSPDLKFFLCSMYTPICLEDYKKPLPPCRSVCERAKAGCAPLMRQYGFAWPDRMRCDRLPEQGNPDTLCMDYNRTDLTTAAP[omitted - human IgG1 Fc]", "modifications": "FZD8-Fc variant 54F15"}, "B5": {"name": "54F26: FZD8-Fc variant; SEQ ID NO:53 with signal sequence SEQ ID NO:71 (SEQ ID NO:75) (protein)", "chain": "MEWGYLLEVTSLLAALFLLQRSPIVHAASAKELACQEITVPLCKGIGYNYTYMPNQFNHDTQDEAGLEVHQFWPLVEIQCSPDLKFFLCSMYTPICLEDYKKPLPPCRSVCERAKAGCAPLMRQYGFAWPDRMRCDRLPEQGNPDTLCMDYNRTDLTT[omitted - human IgG1 Fc with changes]", "modifications": "FZD8-Fc variant 54F26 (with signal)"}}, "key": {"[1]": {"experiment": "Pharmacokinetics of FZD8-Fc variants in rats", "details": "rat, tail vein, 10 mg/kg, plasma"}, "C28 colon tumor [2]": {"system": "C28 colon tumor", "experiment": "C28 colon tumor xenograft, FZD8-Fc variants (Example 14)", "format": "in vivo, NOD/SCID mice", "details": "C28 established tumors; 15 mg/kg i.p. twice a week", "protocol": "(§1) Dissociated C28 colon tumor cells (10,000 cells) were injected subcutaneously into 6-8 week old male NOD/SCID mice. Tumors were allowed to grow for 28 days until they reached an average volume of 145 mm^3. The mice were randomized (n=9 per group) and treated with FZD8-Fc variants or a control antibody at a dose of 15 mg/kg twice a week. Administration of the FZD8-Fc variants and control antibody was performed via injection into the intraperitoneal cavity. Tumor growth was monitored and tumor volumes were measured with electronic calipers at the indicated time points. Data are expressed as mean±S.E.M."}, "[3]": {"system": "canonical Wnt signaling pathway", "experiment": "Luciferase reporter assay in STF293 cells with Wnt3a-conditioned medium", "format": "cell-based", "details": "blocking of Wnt3a-induced luciferase in STF293 cells; relative to reference standard set at 100%", "protocol": "The ability of the FZD8-Fc variants to block or inhibit activation of the Wnt signaling pathway was determined in vitro using a luciferase reporter assay. STF293 cells were cultured in DMEM supplemented with antibiotics and 10% FCS. The STF293 cells are stably transfected with a reporter vector containing seven copies of the TCF transcriptional response element linked to a promoter upstream of a firefly luciferase reporter gene. This construct measures the activity of the canonical Wnt signaling pathway. The cells were added to cultures plates at 10,000 cells per well. After an overnight incubation the FZD8-Fc variants or control mouse JAG1-Fc were added in combination with Wnt3a-conditioned medium. The FZD8-Fc variants and JAG1-Fc were used at concentrations of 20, 4, 0.8, 0.16, 0.03, 0.006, 0.0012, and 0.0003 ug/ml. The cells were incubated in 25% Wnt3A-conditioned medium that had been prepared from L cells that stably express Wnt3a. After overnight incubation (approximately 18 hrs), luciferase levels were measured using a Steady-Glo® luciferase assay kit (Promega, Madison, Wis.).\nThe blocking activity of the FZD8-Fc variants was determined and is presented in Table 3 as relative activity as compared to the same reference standard run in each assay which was set at 100%."}, "PN4 tumors": {"system": "PN4 tumors", "experiment": "FACS for ESA, CD44 and CD201 on PN4 tumors treated with variants", "format": "in vivo, NOD/SCID mice", "details": "vs control antibody", "protocol": "Pancreatic tumor cells from the tumor-bearing mice described above were harvested and minced into approximately 1 mm^3 fragments, followed by enzymatic digestion at 1 gram per 10 ml of 300 μg/ml collagenase and 200 U/ml DNase I for 2 hours at 37° C./5% CO2 with intermittent mixing with a 10 ml pipet to disperse cells. Digestion was stopped by adding an equal volume of FACS buffer (1× Hanks Buffered Saline Solution (HBSS), 2% heat-inactivated Fetal Calf Serum (FCS) and 2 mM HEPES pH 7.4). Cells were filtered through 40 μm nylon filters and collected by centrifugation at 150×g for 5 minutes. Red blood cells were lysed in a hypotonic buffer containing ammonium chloride for 2 minutes on ice, and the cells were washed again with excess FACS buffer, and resuspended with FACS buffer at 1×10^7 cells/ml.\nThe freshly prepared single cell suspensions were stained for 20 minutes on ice with biotinylated anti-mouse H-2Kd (clone SF1-1.1, Biolegend, San Diego, Calif.) at 5 μg/ml, biotinylated anti-mouse CD45 (30-F11, Biolegend) at […], and streptavidin-PerCP-Cy5.5 (eBioscience, San Diego, Calif.) at 1:200 dilution. Unbound antibody was removed by washing twice with 10 volume of FACS buffer. […]"}, "[4]": {"experiment": "Pharmacokinetics of FZD8-Fc variants in cynomolgus monkeys", "details": "monkey, IV bolus 30 mg/kg"}, "[5]": {"details": "rat, in vivo, 10 mg/kg"}, "C28 colon tumor [6]": {"system": "C28 colon tumor", "experiment": "C28 colon tumor xenograft, FZD8-Fc variants (Example 17)", "format": "in vivo, NOD/SCID mice", "details": "C28 established tumors; 15 mg/kg i.p. twice a week; after three weeks of treatment", "protocol": "as §1, with “grow for 56 days until” for “grow for 28 days until”, “volume of 175 mm^3. The” for “volume of 145 mm^3. The”, “were randomized (n=10 per group)” for “were randomized (n=9 per group)”, “with FZD8-Fc constructs 54F03, 54F23, 54F26, or a” for “with FZD8-Fc variants or a”"}, "[7]": {"details": "individual animal, listed as FZD8-Fc 54F16, 30 mg/kg"}, "[8]": {"details": "individual animal, listed as FZD8-Fc 54F15, 30 mg/kg"}}, "note": "Several values for one entry are separate records, joined by “and”; a condition that tells them apart may be missing. Equal values may be shown once. Read-outs that look alike come from different tables or passages of the source.", "data": [{"molecule": "B1", "values": [{"measurement": "t1/2 in hours", "setting": "[1]", "value": 136, "unit": "h"}, {"measurement": "reduction in tumor growth as compared to control antibody", "setting": "C28 colon tumor [2]", "value": "~70", "unit": "%"}, {"measurement": "% Relative Activity", "setting": "[3]", "value": "156% and 157%"}]}, {"molecule": "B2", "values": [{"measurement": "percentage of CD44^hi cells", "setting": "PN4 tumors", "value": "decreased the percentage of CD44^hi cells"}, {"measurement": "percentage of CD201^+CD44^+ cells", "setting": "PN4 tumors", "value": "decreased the percentage of CD201^+CD44^+ cells"}, {"measurement": "AUC0-last", "setting": "[4]; Mean of two animals", "value": 32511.121, "unit": "µg·h/mL"}, {"measurement": "AUC0-∞", "setting": "[4]; Mean of two animals", "value": 39460.17, "unit": "µg·h/mL"}, {"measurement": "AUC0-last", "setting": "[4]; [7]", "value": "29088.083 µg·h/mL and 35934.159 µg·h/mL"}, {"measurement": "AUC0-∞", "setting": "[4]; [7]", "value": "35470.3956 µg·h/mL and 43449.9446 µg·h/mL"}, {"measurement": "reduction in tumor growth as compared to control antibody", "setting": "C28 colon tumor [2]", "value": "~70", "unit": "%"}, {"measurement": "% Relative Activity", "setting": "[3]", "value": 125, "unit": "%"}, {"measurement": "t1/2 in hours", "setting": "[5]", "value": 154, "unit": "h"}]}, {"molecule": "B3", "values": [{"measurement": "reduction of tumor growth as compared to control antibody", "setting": "C28 colon tumor [6]", "value": 57, "unit": "%"}]}, {"molecule": "B4", "values": [{"measurement": "AUC0-last", "setting": "[4]; Mean of two animals", "value": 30273.845, "unit": "µg·h/mL"}, {"measurement": "AUC0-∞", "setting": "[4]; Mean of two animals", "value": 33039.046, "unit": "µg·h/mL"}, {"measurement": "AUC0-last", "setting": "[4]; [8]", "value": "28642.7714 µg·h/mL and 31904.9182 µg·h/mL"}, {"measurement": "AUC0-∞", "setting": "[4]; [8]", "value": "31231.8587 µg·h/mL and 34846.2341 µg·h/mL"}, {"measurement": "reduction in tumor growth as compared to control antibody", "setting": "C28 colon tumor [2]", "value": "~64", "unit": "%"}, {"measurement": "% Relative Activity", "setting": "[3]", "value": 128, "unit": "%"}, {"measurement": "t1/2 in hours", "setting": "[5]", "value": 109, "unit": "h"}]}, {"molecule": "B5", "values": [{"measurement": "reduction of tumor growth as compared to control antibody", "setting": "C28 colon tumor [6]", "value": 52, "unit": "%"}]}]}
